Test results from PubChem BioAssay AID624296 (National Center for Advancing Translational Sciences (NCATS), 2012).
Several values for one entry are separate records, joined by “and”; a condition that tells them apart may be missing. Equal values may be shown once. In all, about 350,000 compounds went through this assay and about 9,900 (2.8%) were called active. The shares of active, inactive and inconclusive entries below differ from those in the screen. Calls come from the whole dose curve; as a rule, active = well fitted activation curve with a large enough effect; inconclusive = small, poorly fitted or top-dose-only effect; inactive = no such curve, though single readings can be large or run the other way. Where the call is inconclusive, the potency comes from a doubtful curve fit. Some compounds were tested as several samples or in several runs, with calls that do not always agree.

Assay: A quantitative high throughput screen for small molecules that induce DNA re-replication in MCF 10a normal breast cells. For activity, positive = re-replication: % of control where 0% means no effect. Note: nearly all actives have a fitted effect of over 50% in size.
Details: MCF 10A DNA re-replication, Hoechst nuclear intensity, 48 h; activity, positive = re-replication: at 46.1 µM (top of the series)
Potency is the fitted concentration of half-maximal effect; tags give direction and shape of the fitted curve.

Row | SMILES | Potency | activity, positive = re-replication
1 | O=C(CCl)c1ccc(Cc2ncc(C(F)(F)F)cc2Cl)s1 | inconclusive: 20.6 µM [activator, single point] | –
2 | Cc1ccc(S(=O)(=O)N2CCN(C(=O)c3cc4c(C)nn(-c5ccccc5)c4s3)CC2)cc1 | inconclusive: 5.17 µM [activator, single point] | –
3 | COc1ccc(S(=O)(=O)N(C)C[C@H]2Oc3ccc(NC(=O)c4ccncc4)cc3C(=O)N([C@H](C)CO)C[C@@H]2C)cc1 | – | inactive: 1.54%
4 | CCCCN(C)C(=S)Nc1ccc2nc3n(c(=O)c2c1)CCCCC3 | inconclusive: 29.1 µM [activator, partial curve, poor fit] | –
5 | Cn1nnnc1SCC(=O)Nc1cc(S(=O)(=O)N2CCCC2)ccc1Cl | inconclusive: 18.4 µM [activator, single point] | –
6 | COc1ccc([C@H]2CC(=O)C=C(c3ccc(OC)nc3)C2)cc1 | – | inactive: -24.2%
7 | CN(C)c1ccc(-c2nc3cc(N)ccc3o2)cc1 | inconclusive: 20.6 µM [activator, single point] | –
8 | CC(C)=NNC(=O)c1c(O)c2ccccc2[nH]c1=O | active: 9.2 µM | –
9 | CC(C)CN(C[C@@H](O)[C@H](Cc1ccccc1)NC(=O)O[C@H]1CO[C@H]2OCC[C@H]21)S(=O)(=O)c1ccc(N)cc1 | – | inactive: -2.15%
10 | CCCCn1c(CCl)nc2cc(S(=O)(=O)N3CCOCC3)ccc21 | inconclusive: 20.6 µM [activator, single point] | –
11 | C=CCOC(=O)c1[nH]c2c(c1C)C(=O)CC(c1ccco1)C2 (stereo unspecified) | inconclusive: 8.2 µM [activator, partial curve, poor fit] | –
12 | CCN(CC)CC(=O)N1CCCC(N2CCN(c3cccc(C(F)(F)F)c3)CC2)C1 (stereo unspecified) | inconclusive: 1.16 µM [activator, single point] | –
13 | Cc1c(NC(=O)c2ccc(Cl)c(S(=O)(=O)N3CCCCC3)c2)c(=O)n(-c2ccccc2)n1C | – | inactive: -1.81%
14 | CN1/C(=C\C(=O)Nc2cccc(Cl)c2)C(C)(C)c2ccccc21 | inconclusive: 20.6 µM [activator, single point] | –
15 | CC1CCCCN1Cc1c(O)ccc2c(=O)c(-c3nc4ccccc4s3)c(N)oc12 (stereo unspecified) | inconclusive: 29.1 µM [activator, single point] | –
16 | Cc1cc(C)c(OCCCCN2CCNCC2)c(C)c1 | inconclusive: 4.11 µM [activator, partial curve, poor fit] | –
17 | Cc1ccc(C2C(=O)N(C3CCC(C)CC3)CC(=O)N2C2CCCC2)cc1 (stereo unspecified) | inconclusive: 0.651 µM [activator, partial curve] | –
18 | COC(=O)N/N=C\c1ccccc1OC/C=C/c1ccccc1 | inconclusive: 29.1 µM [activator, single point] | –
19 | Cc1cccc(NC(=O)c2sc(-c3ccccc3)nc2-c2ccc([N+](=O)[O-])cc2)c1 | – | inactive: -1.51%
20 | Cc1ccc(S(=O)(=O)CC2CSc3nc4ccccc4n32)cc1 (stereo unspecified) | – | inactive: 0.151%
21 | CCn1c(SCC(=O)N/N=C/c2ccc(C)s2)nc2ccccc21 | active: 13 µM | –
22 | OCC1(Cc2ccccc2)CCN(C2CCN(c3ccccc3F)CC2)CC1 | inconclusive: 18.4 µM [activator, partial curve, poor fit] | –

Row | SMILES | Potency | activity, positive = re-replication
23 | C/C(=N\NC(=O)c1ccn(C)n1)c1ccc(NC(=O)C2CCCC2)cc1 | – | inactive: 2.56%
24 | CCNc1ccc(Br)cc(C(=O)/C=C/c2ccc(Cl)cc2)c1=O | active: 13 µM | –
25 | CC1CCN(C(=O)CSc2nnc(-c3cc4ccccc4cc3O)n2Cc2ccco2)CC1 | – | inactive: 7.17%
26 | COC(=O)c1[nH]c2cc(OC)ccc2c1NC(=O)CN1CCN(c2cccc(C)c2)C(C)C1 (stereo unspecified) | inconclusive: 20.6 µM [activator, single point] | –
27 | CC(C)CCNC(=O)NC(=O)CSc1nnc2ccccn12 | inconclusive: 23.1 µM [activator, single point] | –
28 | O=C(CSc1nc(C2CC2)nc2ccccc12)N1c2ccccc2Sc2ccccc21 | inconclusive: 14.6 µM [activator, partial curve, poor fit] | –
29 | C/C(=N\NC(=O)CCCNc1ccccc1)c1ccncc1 | inconclusive: 4.11 µM [activator, partial curve, poor fit] | –
30 | Cc1nn(C(C)(C)C)c(OC(=O)c2ccc3c(c2)OCO3)c1S(=O)(=O)c1ccccc1 | inconclusive: 5.17 µM [activator, full curve, poor fit] | –
31 | Cc1cccc(CS(=O)(=O)c2nnc([C@H](Cc3ccccc3)NC(=O)OC(C)(C)C)o2)c1 | active: 3.26 µM | –
32 | CCOC(=O)c1c(NC(=O)CSc2nnc(-c3ccccc3)n2CC)sc(C(C)=O)c1C | inconclusive: 29.1 µM [activator, single point] | –
33 | COCC(=O)N1CCCC(C(=O)c2ccc(-c3ccccc3)c(F)c2)C1 (stereo unspecified) | inconclusive: 29.1 µM [activator, partial curve, poor fit] | –
34 | CCC(=O)Nc1cccc(NC(=S)NC(=O)c2cc3ccccc3o2)c1 | inconclusive: 22.4 µM [activator, single point] | –
35 | Brc1ccc2oc(-c3ccn[nH]3)cc2c1 | inconclusive: 0.731 µM [activator, partial curve, poor fit] | –
36 | O=C(Nc1ccc2oc(-c3cccnc3)nc2c1)c1ccc([N+](=O)[O-])o1 | inconclusive: 4.61 µM [activator, partial curve, poor fit] | –
37 | O=C(c1ccc(CS(=O)c2cccc(Cl)c2)o1)N1CCOCC1 (stereo unspecified) | – | inactive: 3.16%
38 | CCOC(=O)c1ccc(NC(=O)CN2C(=O)NC3(CCCCCCC3)C2=O)cc1 | inconclusive: 7.31 µM [activator, partial curve, poor fit] | –
39 | O=C(N/N=C/c1ccco1)c1ccc2nc[nH]c2c1 | – | inactive: -0.709%
40 | COC(=O)C1CCN(c2nc3ccccc3nc2C(C#N)C(=O)NCCc2ccccc2)CC1 (stereo unspecified) | inconclusive: 6.51 µM [activator, partial curve] | –
41 | COc1ccc(NS(=O)(=O)c2cccc(C(=O)NCc3ccccc3CN3CCCC3)c2)cc1 | inconclusive: 29.1 µM [activator, single point] | –
42 | CC(=O)c1ccc(NC(=O)C(C)Sc2nnc3ccccn23)cc1 (stereo unspecified) | inconclusive: 23.1 µM [activator, single point] | –
43 | CCOC(=O)c1c(-c2cccc([N+](=O)[O-])c2)csc1NC(=O)C1CCCCC1 | inconclusive: 14.6 µM [activator, partial curve] | –
44 | O=C(CSc1ncn[nH]1)Nc1ccccc1-c1ccccc1 | – | inactive: 256% [at 0.0737 µM]

Row | SMILES | Potency | activity, positive = re-replication
45 | COc1cc(/C=C2\SC(N)=NC2=O)ccc1O | inconclusive: 29.1 µM [activator, single point] | –
46 | N#C/C(=C\C=C\c1ccccc1[N+](=O)[O-])C(=O)NCc1ccccc1 | active: 3.66 µM | –
47 | CN(C)CC(C)(C)CNS(=O)(=O)c1ccc(Cl)c(Cl)c1 | inactive and inconclusive: 4.11 µM [activator, partial curve, poor fit] | –
48 | CC(C)(c1cc(Cl)c(O)c(CN2CCOCC2)c1)c1cc(Cl)c(O)c(CN2CCOCC2)c1 | inconclusive: 4.11 µM [activator, full curve] | –
49 | CN(C)S(=O)(=O)c1ccc2c(c1)nc(CCC(=O)NCCc1ccc(Cl)cc1)n2C | – | inactive: 13.6%
50 | CSc1c(C#N)c(N)nc2sc(C(=O)c3ccccc3)c(N)c12 | inconclusive: 0.651 µM [activator, full curve, poor fit] | –
51 | COc1cc(/C=C/C(=O)CC(=O)/C=C/c2ccc(O)c(OC)c2)ccc1O | active: 25.9 µM | –
52 | O=C(N[C@@H](Cc1ccccc1)c1nc2ccccc2[nH]1)c1cc([N+](=O)[O-])ccc1Cl | inconclusive: 29.1 µM [activator, single point] | –
53 | Cc1ccccc1C1=C/C(=C(\SS/C(C(=O)c2ccc(OCC(=O)O)c(Cl)c2Cl)=C2\C=C(c3ccccc3C)SS2)C(=O)c2ccc(OCC(=O)O)c(Cl)c2Cl)SS1 | – | inactive: -13.9%
54 | N#Cc1nc(COc2ccccc2)oc1N1CCN(Cc2ccccc2)CC1 | inconclusive: 18.4 µM [activator, partial curve, poor fit] | –
55 | COc1cccc(CC(=O)OCC(=O)NC2CCCCCC2)c1 | – | inactive: 2.81%
56 | O=C(Nc1nnc(-c2ccccc2)s1)c1ccccc1O | inconclusive: 29.1 µM [activator, single point] | –
57 | Cc1ccc(NC(=O)C2CSC3(C)CCC(=O)N23)cc1S(=O)(=O)N1CCCCCC1 (stereo unspecified) | inconclusive: 23.1 µM [activator, single point] | –
58 | CCOC(=O)c1c(NC(=O)CCS(=O)(=O)c2ccccc2)sc2c1CCN(C)C2 | inconclusive: 29.1 µM [activator, single point] | –
59 | Cc1ccc(CSc2nnc(SCC(=O)N/N=C/c3c(C)nn(-c4ccccc4)c3C)s2)cc1 | – | inactive: -1.48%
60 | Cc1cc(O)c(C(C)C)cc1N=Cc1ccc(N(C)C)cc1 | active: 20.6 µM | –
61 | CCSc1ncc(Cl)c(C(=O)Nc2ccccc2OC)n1 | inconclusive: 18.4 µM [activator, single point] | –
62 | COc1cc(C(c2c(C)[nH][nH]c2=O)c2c(C)[nH][nH]c2=O)ccc1OCc1ccc([N+](=O)[O-])cc1 | active: 20.6 µM | –
63 | [2H]c1c([2H])c([2H])c(-c2nc(N3CCCCCC3)sc2C(=O)c2ccccc2)c([2H])c1[2H] | active: 7.31 µM | –
64 | COc1ccc2[nH]c(=O)c(COC(=O)c3cccs3)cc2c1 | inconclusive: 23.1 µM [activator, partial curve, poor fit] | –
65 | O=C1C(SCCO)=C(SCCO)C(=O)c2ccccc21 | – | inactive: 6.26%
66 | CC[n+]1c(/C=C/C=C/N(C(C)=O)c2ccccc2)sc2ccccc21 | – | inactive: -5.71%
